Source: publication PMC9911399, “Two distinct binding modes provide the RNA-binding protein RbFox with extraordinary sequence specificity”
Changes are numbered by the printed parent chain; changes in the protein carry UniProt numbers. The list shows a part of the results.

T1: RBFOX1 RRM RbFoxmut (Fox-RRM*) (Homo sapiens, UniProt Q9NWB1 109-208, R118D;E147R;N151S;E152T)
T1 sequence: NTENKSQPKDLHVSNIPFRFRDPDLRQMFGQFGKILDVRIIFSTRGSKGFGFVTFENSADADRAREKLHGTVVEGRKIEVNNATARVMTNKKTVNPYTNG

B1: AUCCGUG (DNA:RNA)
RNA: GGGAGACCGGAAUUCAGAUUGUCCAUCCGUGUUAAAUCCCGUCGUAGCCACCA
DNA 1: CAATCTGAATTCCGGTCTCCC
DNA 2: TGGTGGCTACGACGGGATT
B2: CGGAUUG (DNA:RNA)
RNA: B1 RNA with A25C, U26G, C27G, C28A, G29U
DNA 1: CAATCTGAATTCCGGTCTCCC
DNA 2: TGGTGGCTACGACGGGATT
B3: UGCGCAG (DNA:RNA)
RNA: B1 RNA with A25U, U26G, C28G, G29C, U30A
DNA 1: CAATCTGAATTCCGGTCTCCC
DNA 2: TGGTGGCTACGACGGGATT
B4: GCAUCUU (DNA:RNA)
RNA: B1 RNA with A25G, U26C, C27A, C28U, G29C, G31U
DNA 1: CAATCTGAATTCCGGTCTCCC
DNA 2: TGGTGGCTACGACGGGATT
B5: GUCGGGU (DNA:RNA)
RNA: B1 RNA with A25G, C28G, U30G, G31U
DNA 1: CAATCTGAATTCCGGTCTCCC
DNA 2: TGGTGGCTACGACGGGATT
B6: CACCAAC (DNA:RNA)
RNA: B1 RNA with A25C, U26A, G29A, U30A, G31C
DNA 1: CAATCTGAATTCCGGTCTCCC
DNA 2: TGGTGGCTACGACGGGATT
B7: UGACUGU (DNA:RNA)
RNA: B1 RNA with A25U, U26G, C27A, G29U, U30G, G31U
DNA 1: CAATCTGAATTCCGGTCTCCC
DNA 2: TGGTGGCTACGACGGGATT
B8: AUAAGUU (DNA:RNA)
RNA: B1 RNA with C27A, C28A, G31U
DNA 1: CAATCTGAATTCCGGTCTCCC
DNA 2: TGGTGGCTACGACGGGATT
B9: AGCACUC (DNA:RNA)
RNA: B1 RNA with U26G, C28A, G29C, G31C
DNA 1: CAATCTGAATTCCGGTCTCCC
DNA 2: TGGTGGCTACGACGGGATT
B10: CAACGAU (DNA:RNA)
RNA: B1 RNA with A25C, U26A, C27A, U30A, G31U
DNA 1: CAATCTGAATTCCGGTCTCCC
DNA 2: TGGTGGCTACGACGGGATT
B11: UUACUCG (DNA:RNA)
RNA: B1 RNA with A25U, C27A, G29U, U30C
DNA 1: CAATCTGAATTCCGGTCTCCC
DNA 2: TGGTGGCTACGACGGGATT
B12: ACCGGGU (DNA:RNA)
RNA: B1 RNA with U26C, C28G, U30G, G31U
DNA 1: CAATCTGAATTCCGGTCTCCC
DNA 2: TGGTGGCTACGACGGGATT
B13: AAUGGUG (DNA:RNA)
RNA: B1 RNA with U26A, C27U, C28G
DNA 1: CAATCTGAATTCCGGTCTCCC
DNA 2: TGGTGGCTACGACGGGATT
B14: CGGCUAC (DNA:RNA)
RNA: B1 RNA with A25C, U26G, C27G, G29U, U30A, G31C
DNA 1: CAATCTGAATTCCGGTCTCCC
DNA 2: TGGTGGCTACGACGGGATT
B15: UCUCAUC (DNA:RNA)
RNA: B1 RNA with A25U, U26C, C27U, G29A, G31C
DNA 1: CAATCTGAATTCCGGTCTCCC
DNA 2: TGGTGGCTACGACGGGATT
B16: UUUGAGC (DNA:RNA)
RNA: B1 RNA with A25U, C27U, C28G, G29A, U30G, G31C
DNA 1: CAATCTGAATTCCGGTCTCCC
DNA 2: TGGTGGCTACGACGGGATT
B17: UCCCUUG (DNA:RNA)
RNA: B1 RNA with A25U, U26C, G29U
DNA 1: CAATCTGAATTCCGGTCTCCC
DNA 2: TGGTGGCTACGACGGGATT
B18: CGUAAUA (DNA:RNA)
RNA: B1 RNA with A25C, U26G, C27U, C28A, G29A, G31A
DNA 1: CAATCTGAATTCCGGTCTCCC
DNA 2: TGGTGGCTACGACGGGATT
B19: GUCCUAU (DNA:RNA)
RNA: B1 RNA with A25G, G29U, U30A, G31U
DNA 1: CAATCTGAATTCCGGTCTCCC
DNA 2: TGGTGGCTACGACGGGATT
B20: UCGACAC (DNA:RNA)
RNA: GGGAGACCGGAAUUCAGAUUGUCCUCGACACUUAAAUCCCGUCGUAGCCACCA
DNA 1: CAATCTGAATTCCGGTCTCCC
DNA 2: TGGTGGCTACGACGGGATT

Each binder was assayed against T1, RBFOX1 RRM RbFoxmut (Fox-RRM*) (assay: EMSA; HiTS-Eq, 1 nM pool, 10 min; buffer printed only for the single-RNA assays: 10 mM Tris pH 7.5, 150 mM NaCl, 3.4 mM EDTA, 0.001% NP-40, 30 C). Details: tags: His6 N-terminal (pET28a); label: 5' 32P.
Procedure, shortened: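 Purified wild-type or mutant RbFox RRM at increasing concentrations was equilibrated with 1 nM of 5′-radiolabelled RNA carrying 7 randomized nucleotides for 10 min in 50 µL. Unbound RNA was separated by 8% native PAGE and sequenced. Relative association constants came from read-count changes of each RNA species compared with the control reaction, normalised to the cognate motif.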

**Q.** For B1, which binding signal is on record?
**A.** 0.12 KA relative to UGCAUGU

**Q.** How did the binding signal turn out when B2 was run?
**A.** 0.522 KA relative to UGCAUGU

**Q.** B3 was tested. Which binding signal did it give?
**A.** 0.0904 KA relative to UGCAUGU

**Q.** How did the binding signal turn out when B4 was run?
**A.** 0.33 KA relative to UGCAUGU

**Q.** With B5 as the binder, how does the binding signal read?
**A.** 0.132 KA relative to UGCAUGU

**Q.** With B6 as the binder, how does the binding signal read?
**A.** 0.0712 KA relative to UGCAUGU

**Q.** B7 was tested. Which binding signal did it give?
**A.** 0.214 KA relative to UGCAUGU

**Q.** For B8, which binding signal is on record?
**A.** 0.113 KA relative to UGCAUGU

**Q.** Which binding signal does the source give for B9 here?
**A.** 0.0463 KA relative to UGCAUGU

**Q.** With B10 as the binder, how does the binding signal read?
**A.** 0.0618 KA relative to UGCAUGU

**Q.** B11 was tested. Which binding signal did it give?
**A.** 0.103 KA relative to UGCAUGU

**Q.** Which binding signal does the source give for B12 here?
**A.** 0.0688 KA relative to UGCAUGU

**Q.** With B13 as the binder, how does the binding signal read?
**A.** 0.0986 KA relative to UGCAUGU

**Q.** How did the binding signal turn out when B14 was run?
**A.** 0.0923 KA relative to UGCAUGU

**Q.** B15 was tested. Which binding signal did it give?
**A.** 0.0794 KA relative to UGCAUGU

**Q.** How did the binding signal turn out when B16 was run?
**A.** 0.122 KA relative to UGCAUGU

**Q.** B17 was tested. Which binding signal did it give?
**A.** 0.124 KA relative to UGCAUGU

**Q.** Which binding signal does the source give for B18 here?
**A.** 0.126 KA relative to UGCAUGU

**Q.** For B19, which binding signal is on record?
**A.** 0.104 KA relative to UGCAUGU

**Q.** For B20, which binding signal is on record?
**A.** 0.0688 KA relative to UGCAUGU
